Each structure is given as a SMILES string. The campaign covered roughly 52,000 compounds. About 1,700 (3.3%) were called active. No stated cut-off is given here; in the data, active means survival mostly below about 52% (no sharp cut-off); inactive means mostly above about 56%. This is one part of the list.

This experiment concerns Wild type. Description: S. aureus survival, RN4220 and DeltatarO strains – OD600, teichoic acid synthesis inhibitors, primary screen (AID 463173). The conditions noted are these: S. aureus RN4220 wild type/DeltatarO growth, OD600, 18 h, hits give low values, screened at 18.75 µg/mL (by protocol).
For the molecule `Cc1ccc(-c2nc3cc(C(C)C)ccc3o2)cc1NC(=O)c1cc2ccccc2o1`, the survival is active: 11%.

In the case of `CCc1ccc(CNC(=O)c2sc3ncccc3c2-n2c(C)ccc2C)cc1`, the survival is active: -3%.

With `CCOc1ccccc1CNS(=O)(=O)c1ccc2c(c1)CCCN2C(C)=O`, the survival is inactive: 88%.

On to `O=C(Cn1ccn(-c2ccc(F)c(F)c2)c(=O)c1=O)Nc1ccccc1F`, for which the survival is inactive: 83%.

For `Cc1ccc(C(=O)N2CCC(C(=O)O)CC2)cc1`, the survival is inactive: 95%.

Take `Cc1ccc(N(CC(=O)NCCc2ccc(Cl)cc2)S(=O)(=O)N(C)C)cc1`: the survival is inactive: 119%.

Take `COc1cccc(NC(=O)CSc2nc3c(oc4ccccc43)c(=O)n2Cc2ccco2)c1`: the survival is inactive: 70%.

In the case of `CCCNC(=O)c1c(O)c2ccccc2n(C)c1=O`, the survival was inactive: 95%.

Consider `O=C(CCSc1nc(-c2ccco2)cc(C(F)(F)F)n1)Nc1cccc(O)c1`, for which the survival was inactive: 124%.

With `O=C(Nc1ccc2oc(-c3cccnc3)nc2c1)c1cccc(Br)c1`, the survival is inactive: 75%.

For the molecule `COc1cc(-c2noc(CN3CCN(c4ccccc4)CC3)n2)cc(OC)c1OC`, the survival was inactive: 91%.

In the case of `CC(C)CCNC(=O)CCCN1C(=O)c2ccccc2Sc2ncccc21`, the survival was inactive: 85%.

Turning to `CCc1ccc(C2c3c(-c4ccccc4O)n[nH]c3C(=O)N2Cc2ccncc2)cc1` (stereo not drawn), the survival is inactive: 84%.

As for `COc1cc(OC)cc(C(=O)Oc2c(Sc3ccccc3)c(C)nn2C(C)(C)C)c1`, the survival was inactive: 50%.

With `Cc1cn2c(=O)cc(COC(=O)c3cccc(NC(=O)COc4ccccc4Cl)c3)nc2s1`, the survival was inactive: 124%.

Turning to `CCOC(=O)c1ccccc1NC(=O)N1CCc2c(sc(C)c2CC)C1c1ccccc1` (stereo not drawn), the survival was inactive: 130%.

In the case of `COc1ccccc1-c1nc2c(c(SCc3cccc(Cl)c3)n1)Cc1c(CO)cnc(C)c1O2`, the survival was inactive: 93%.

Take `O=C(O)CNCc1nc2ccccc2[nH]1`: the survival is inactive: 94%.

Turning to `N[n+]1cnn(CC(=O)c2ccc(Cl)cc2)c1`, the survival is inactive: 107%.

As for `Cc1cccc(NC(=O)C(=O)NCC(c2ccc3c(c2)OCO3)N2CCOCC2)c1C` (stereo not drawn), the survival was inactive: 79%.

As for `Cc1cc(C)c(NC(=O)C2CCN(c3nc4ccccc4[nH]3)CC2)c(C)c1`, the survival is inactive: 81%.

Take `O=C(Nc1cccs1)Nc1cc(C(F)(F)F)ccc1Cl`: the survival was inactive: 26%.

With `Cc1ccc(Cl)cc1N1CCN(C(=O)c2cnc(N3CCOCC3)c3ccccc23)CC1`, the survival is inactive: 126%.

Take `COC(=O)c1cc2c(ccn2C)n1CC(=O)N(C1CCCCC1)C1CCCCC1`: the survival was inactive: 113%.

As for `CN1CCN(C(CNC(=O)c2cccc(F)c2)c2ccc3c(c2)OCO3)CC1` (stereo not drawn), the survival is inactive: 77%.

In the case of `CCOc1ccc(-n2c(Cc3ccccc3)nnc2SCc2nc(-c3ccccc3OC)no2)cc1`, the survival is inactive: 66%.

In the case of `CC(C)c1cc(C(F)(F)F)n2nc(C(=O)O)cc2n1`, the survival is inactive: 108%.

Take `Cc1ccc2c(c1)-c1nc(-c3ccc(Cl)cc3)cc(-c3coc4ccccc4c3=O)c1CO2`: the survival is inactive: 139%.

In the case of `O=C(Nc1ccc2oc(-c3ccccc3F)nc2c1)c1ccccc1Cl`, the survival is inactive: 72%.

On to `Cc1cccc(CSc2ncc(CO)n2Cc2ccc(F)cc2)c1`, for which the survival is inactive: 134%.

In the case of `CCCSc1ncc(Cl)c(C(=O)Nc2ccc(S(=O)(=O)Nc3ncccn3)cc2)n1`, the survival is inactive: 90%.

On to `COc1ccc(NC(=O)CSc2ncc3c(n2)-c2cc(Cl)ccc2N(Cc2ccccc2F)S3(=O)=O)cc1`, for which the survival is inactive: 65%.

On to `CCn1nnnc1SCC(=O)c1ccc(OC)cc1OC`, for which the survival is inactive: 105%.

Take `COC(=O)Nc1ccc(S(=O)(=O)N2CCCCC2)cc1`: the survival is inactive: 99%.

In the case of `CC1CC(C(F)(F)F)n2ncc(C(=O)O)c2N1` (stereo not drawn), the survival was inactive: 108%.

For the molecule `Cc1cc(C)c2c(=O)cc(C(=O)Nc3sc4c(c3C(=O)NCc3ccccc3)CCCC4)oc2c1`, the survival is inactive: 82%.

For `CC(=O)Nc1ccc(S(=O)(=O)c2cc(O)ccc2O)cc1`, the survival was inactive: 103%.

Consider `Fc1ccc(-n2ncc3c(NCCCN4CCOCC4)ncnc32)cc1`, for which the survival is inactive: 57%.

For the molecule `O=C(Nc1ccc2nc(SCC(=O)N3CCCc4ccccc43)sc2c1)c1cccc(F)c1`, the survival was inactive: 80%.

For `COC(=O)c1cc(S(=O)(=O)NCC2CCN(Cc3ccc(F)cc3)CC2)cn1C`, the survival was inactive: 120%.

As to `Cn1ccnc1SCC(=O)n1c2c(c3ccccc31)CCCC2`, the survival was inactive: 104%.

Consider `COc1cc(-c2nnc(SCCOc3ccc(Cl)cc3C)o2)cc(OC)c1OC`, for which the survival was inactive: 112%.

`CCOC(=O)c1c(NC(=O)CSc2cn(CCNC(=O)c3ccccc3F)c3ccccc23)sc2c1CCC2`: the survival was inactive: 76%.

Consider `COc1cccc(CNC(=O)c2ccc(CSc3nc4ccncc4n3Cc3cccc(C)c3)cc2)c1`, for which the survival was inactive: 82%.

On to `Cc1ccc2c(c1)N(CCC(=O)NCc1ccc(F)cc1)C(=O)CO2`, for which the survival is inactive: 87%.

In the case of `COc1cc(NC(=O)CCc2c(C)nn(-c3ccc4nncn4n3)c2C)cc(OC)c1OC`, the survival is inactive: 84%.

Turning to `COc1ccc2ncc(C(=O)O)c(NCCO)c2c1`, the survival was inactive: 100%.

Take `Cc1ccc(Cl)cc1N1CCN(S(=O)(=O)c2ccc3[nH]c4c(c3c2)CCCCC4)CC1`: the survival was inactive: 83%.

As for `CCOCCc1nn2c(=O)cc(COC(=O)CNC(=O)c3ccc(C(C)(C)C)cc3)nc2s1`, the survival was inactive: 126%.

As for `COc1cccc(N2CCN(C(=O)c3ccc4c(=O)n(CCc5ccccc5)c(=O)[nH]c4c3)CC2)c1`, the survival was inactive: 68%.

In the case of `O=C(NC(=S)NC1CC1)c1cccnc1`, the survival was inactive: 100%.

Consider `COc1ccc(NC(=O)CSc2cn(CC(=O)N3CCOCC3)c3ccccc23)cc1OC`, for which the survival is inactive: 96%.

As for `Cc1c(CC(=O)NCCc2ccccc2F)c(=O)oc2c(C)c3occ(C(C)(C)C)c3cc12`, the survival was inactive: 73%.

On to `CC(C)COC(=O)/C(C#N)=C\c1ccc(-c2ccccc2Cl)o1`, for which the survival was inactive: 60%.

Consider `COc1ccccc1CNS(=O)(=O)c1cc(C(=O)Nc2cccc(C(F)(F)F)c2)ccc1F`, for which the survival is inactive: 85%.

`COC(=O)Cn1c(O)c(N=NC(=O)c2ccc3c(c2)OCO3)c2ccccc21`: the survival is inactive: 111%.

As for `Cc1ccc(Cl)c2c1N[C@@H](c1ccc(C(=O)O)cc1)[C@H]1CC=C[C@@H]21`, the survival is active: 10%.

On to `Cc1cccc(OCC(=O)Nc2c(C)ccc3nsnc23)c1C`, for which the survival is inactive: 87%.
